Test results taken from the supplement of paper PMC4604168 (melanoma cell lines).
The list shows a part of the results. Most values come without repeats; read them as rough.

The compounds below were run on MEL-HO (assay: cell count relative to DMSO control; melanoma cells; higher = more viable cells). Settings: library dose: standard library concentration; 72 h.
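Note: cells treated in 1,536-well plates, then fixed and DAPI-stained, with nuclei counted from automated high-throughput microscope images.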

Row | Compound | cell count [%]
1 | CCCS(=O)(=O)Nc1ccc(F)c(C(=O)c2c[nH]c3ncc(Cl)cc23)c1F + COc1ccc2c(c1)CCC1C2CCC2(C)C(NCCCCCCN3C(=O)C=CC3=O)CCC12 [U73122] (first compound 0.4 µM, partner dose 2 µM) | 100
2 | CCCS(=O)(=O)Nc1ccc(F)c(C(=O)c2c[nH]c3ncc(Cl)cc23)c1F + C#Cc1cccc(Nc2ncnc3cc(OCCOC)c(OCCOC)cc23)c1 [erlotinib] (first compound 0.4 µM, partner dose 4 µM) | 77.8
3 | CS(=O)(=O)c1ccc(C(=O)Nc2ccc(Cl)c(-c3ccccn3)c2)c(Cl)c1 [vismodegib] + COc1ccc(Cl)c(Nc2nc3ccccc3nc2NS(=O)(=O)c2cccc(NC(=O)C(C)(C)N)c2)c1 [XL147] (first compound 5 µM, partner dose 4 µM) | 74.5
4 | CS(=O)(=O)c1ccc(C(=O)Nc2ccc(Cl)c(-c3ccccn3)c2)c(Cl)c1 [vismodegib] + Cn1c(Nc2ccc(C(F)(F)F)cc2)nc2cc(Oc3ccnc(-c4ncc(C(F)(F)F)[nH]4)c3)ccc21 [CHIR265] (first compound 5 µM, partner dose 0.4 µM) | 73.4
5 | C=C(c1ccc(C(=O)O)cc1)c1cc2c(cc1C)C(C)(C)CCC2(C)C [Bexarotene] + C=CCn1c(=O)c2cnc(Nc3ccc(N4CCN(C)CC4)cc3)nc2n1-c1cccc(C(C)(C)O)n1 [MK1775] (first compound 10 µM, partner dose 0.1 µM) | 94.8
